# According to publication PMC3727929 (Molecular Biology of the Cell, 2013):
# B1: Dyn2 (S. cerevisiae dynein light chain), wild type, full length (natural protein)
# chain: not shown
# Target: the molecule itself
# Assay: SEC-MALS
protein,measurement,value
B1,stoichiometry N,2
